Measurements taken from the supplement of paper PMC10369915.
Some of the results follow. No stated cut-off is given here; in the data, active = 3.2 or more and inactive = the rest. The signal is at background level for most entries.

What follows are binders tested against SHP2 C-SH2 domain E139D (assay: enrichment score (SH2-bound / input frequency) (ratio); bacterial display of known human phosphotyrosine sites (pTyr-Var adds point mutants) read by sequencing; higher = stronger binding; tyrosines were phosphorylated by kinases first). Conditions: peptide library: pTyr-Var.
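Further: displayed peptides selected on beads carrying the immobilized SH2 domain, with library peptides lacking any tyrosine serving as negative controls.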

Enrichment score, active:
CTSIHYNYMCN [TP53_Y234_T231S] 3.59
CSTIHYNYMCN [TP53_Y234_T230S] 4.14
CTTIHYDYMCN [TP53_Y234_N235D] 3.79

Enrichment score, inactive:
GSQERYFELVE [TSC2_Y407] 0.863
PGDGEYFTLQI [TP53_Y327_L323G] 0.722
CTTIHYFFMCN [TP53_Y234_N235Y_YF] 1.38
CTTIHCNYMCN [TP53_Y234_Y234C] 1.89
EADRKYEEVAR [TPM3_Y163] 0.543
PPDGEYFTLQI [TP53_Y327_L323P] 0.547
LESILYESSVV [TRPV4_Y91_T89I] 1.38
ARMTNYGLPRY [TSPAN12_Y138] 0.529
PLDGEHFTLQI [TP53_Y327_Y327H] 0.893
LEDEVCAQKMK [TPM2_Y261_Y261C] 1.07
FVTSMYNEILI [TRPV1_Y310_M315I] 2.23
PLDGEYFTRQI [TP53_Y327_L330R] 0.806
PLDGESFTLQI [TP53_Y327_Y327S] 0.689
DTMQTYNGNDE [TSPAN7_Y131_A127T] 0.531
PLSGEYFTLQI [TP53_Y327_D324S] 0.825

The binders below were run against SHP2 C-SH2 domain wild-type in the same assay as above. Conditions: peptide library: pTyr-Var.

Enrichment score, active:
CTSIHYNYMCN [TP53_Y234_T231S] 4.93
CSTIHYNYMCN [TP53_Y234_T230S] 5.74
CTTIHYDYMCN [TP53_Y234_N235D] 3.38

Enrichment score, inactive:
GSQERYFELVE [TSC2_Y407] 0.845
PGDGEYFTLQI [TP53_Y327_L323G] 0.551
CTTIHYFFMCN [TP53_Y234_N235Y_YF] 1.4
CTTIHCNYMCN [TP53_Y234_Y234C] 2.25
EADRKYEEVAR [TPM3_Y163] 0.477
PPDGEYFTLQI [TP53_Y327_L323P] 0.578
LESILYESSVV [TRPV4_Y91_T89I] 1.14
ARMTNYGLPRY [TSPAN12_Y138] 0.496
PLDGEHFTLQI [TP53_Y327_Y327H] 1.04
LEDEVCAQKMK [TPM2_Y261_Y261C] 0.533
FVTSMYNEILI [TRPV1_Y310_M315I] 2.04
PLDGEYFTRQI [TP53_Y327_L330R] 0.829
PLDGESFTLQI [TP53_Y327_Y327S] 0.926
DTMQTYNGNDE [TSPAN7_Y131_A127T] 0.501
PLSGEYFTLQI [TP53_Y327_D324S] 1.17

Each binder was assayed against SHP2 N-SH2 domain L43F in the same assay as above. Conditions: peptide library: pTyr-Var.

Enrichment score, inactive:
GSQERYFELVE [TSC2_Y407] 0.835
PGDGEYFTLQI [TP53_Y327_L323G] 0.425
CTTIHYFFMCN [TP53_Y234_N235Y_YF] 1.31
CTTIHCNYMCN [TP53_Y234_Y234C] 2.13
EADRKYEEVAR [TPM3_Y163] 0.567
PPDGEYFTLQI [TP53_Y327_L323P] 0.815
CTSIHYNYMCN [TP53_Y234_T231S] 2.59
LESILYESSVV [TRPV4_Y91_T89I] 1.23
ARMTNYGLPRY [TSPAN12_Y138] 0.616
CSTIHYNYMCN [TP53_Y234_T230S] 2.92
PLDGEHFTLQI [TP53_Y327_Y327H] 0.716
LEDEVCAQKMK [TPM2_Y261_Y261C] 0.89
FVTSMYNEILI [TRPV1_Y310_M315I] 2.7
PLDGEYFTRQI [TP53_Y327_L330R] 1.13
PLDGESFTLQI [TP53_Y327_Y327S] 0.761
DTMQTYNGNDE [TSPAN7_Y131_A127T] 0.514
PLSGEYFTLQI [TP53_Y327_D324S] 1.23

Enrichment score, active:
CTTIHYDYMCN [TP53_Y234_N235D] 4.34

What follows are binders tested against SHP2 N-SH2 domain T42A in the same assay as above. Conditions: peptide library: pTyr-Var.

Enrichment score, active:
FVTSMYNEILI [TRPV1_Y310_M315I] 5.52

Enrichment score, inactive:
GSQERYFELVE [TSC2_Y407] 0.641
PGDGEYFTLQI [TP53_Y327_L323G] 0.404
CTTIHYFFMCN [TP53_Y234_N235Y_YF] 1.24
CTTIHCNYMCN [TP53_Y234_Y234C] 1.91
EADRKYEEVAR [TPM3_Y163] 0.522
PPDGEYFTLQI [TP53_Y327_L323P] 0.602
CTSIHYNYMCN [TP53_Y234_T231S] 2.46
LESILYESSVV [TRPV4_Y91_T89I] 0.899
ARMTNYGLPRY [TSPAN12_Y138] 0.449
CSTIHYNYMCN [TP53_Y234_T230S] 2.42
CTTIHYDYMCN [TP53_Y234_N235D] 3.08
PLDGEHFTLQI [TP53_Y327_Y327H] 0.746
LEDEVCAQKMK [TPM2_Y261_Y261C] 0.555
PLDGEYFTRQI [TP53_Y327_L330R] 1.05
PLDGESFTLQI [TP53_Y327_Y327S] 0.723
DTMQTYNGNDE [TSPAN7_Y131_A127T] 0.452
PLSGEYFTLQI [TP53_Y327_D324S] 1.01

The binders below were run against SHP2 N-SH2 domain T52S in the same assay as above. Conditions: peptide library: pTyr-Var.

Enrichment score, active:
CTTIHYDYMCN [TP53_Y234_N235D] 3.64

Enrichment score, inactive:
GSQERYFELVE [TSC2_Y407] 0.775
PGDGEYFTLQI [TP53_Y327_L323G] 0.586
CTTIHYFFMCN [TP53_Y234_N235Y_YF] 1.42
CTTIHCNYMCN [TP53_Y234_Y234C] 1.96
EADRKYEEVAR [TPM3_Y163] 0.442
PPDGEYFTLQI [TP53_Y327_L323P] 0.653
CTSIHYNYMCN [TP53_Y234_T231S] 2.9
LESILYESSVV [TRPV4_Y91_T89I] 1.16
ARMTNYGLPRY [TSPAN12_Y138] 0.623
CSTIHYNYMCN [TP53_Y234_T230S] 3.02
PLDGEHFTLQI [TP53_Y327_Y327H] 0.635
LEDEVCAQKMK [TPM2_Y261_Y261C] 0.452
FVTSMYNEILI [TRPV1_Y310_M315I] 2.43
PLDGEYFTRQI [TP53_Y327_L330R] 0.848
PLDGESFTLQI [TP53_Y327_Y327S] 0.873
DTMQTYNGNDE [TSPAN7_Y131_A127T] 0.328
PLSGEYFTLQI [TP53_Y327_D324S] 1.04

The binders below were run against SHP2 N-SH2 domain wild-type in the same assay as above. Conditions: peptide library: pTyr-Var.

Enrichment score, inactive:
GSQERYFELVE [TSC2_Y407] 0.98
PGDGEYFTLQI [TP53_Y327_L323G] 0.809
CTTIHYFFMCN [TP53_Y234_N235Y_YF] 1.47
CTTIHCNYMCN [TP53_Y234_Y234C] 2.17
EADRKYEEVAR [TPM3_Y163] 0.537
PPDGEYFTLQI [TP53_Y327_L323P] 1.01
CTSIHYNYMCN [TP53_Y234_T231S] 2.66
LESILYESSVV [TRPV4_Y91_T89I] 0.96
ARMTNYGLPRY [TSPAN12_Y138] 0.632
CSTIHYNYMCN [TP53_Y234_T230S] 2.08
CTTIHYDYMCN [TP53_Y234_N235D] 2.57
PLDGEHFTLQI [TP53_Y327_Y327H] 0.944
LEDEVCAQKMK [TPM2_Y261_Y261C] 0.659
FVTSMYNEILI [TRPV1_Y310_M315I] 2.05
PLDGEYFTRQI [TP53_Y327_L330R] 1.29
PLDGESFTLQI [TP53_Y327_Y327S] 1.15
DTMQTYNGNDE [TSPAN7_Y131_A127T] 0.393
PLSGEYFTLQI [TP53_Y327_D324S] 1.39
